# In PMC12136788:
# This is one part of the list.
# B1: chr11:27366961:27367062:-|3pUTR|ENSG00000205213|msi1|total|mutant (ssRNA)
# RNA: GGGAGUUCUACAGUCCGACGAUCUGAAUACUUCCUAAUAUCGUUGGCUCUACUAAUAUUUUCCAAUUUGCUGGGAUGUCACCCCGCAACCGCUUGGAUUAUACCGAAAGUAAACUGUGGUCAAUACUUGCAUUUAAUCCGACGCAACAGAGGAUUGAGCAUCA
# B2: chr11:613205:613595:-|three_prime_utr|ENSG00000185507|control|control|control (ssRNA)
# RNA: GGGAGUUCUACAGUCCGACGAUCCUGCACGUUCCUAUACGGCCCCCCAGACCCAGCUGUCCGGGCCACAGACCCCCAGCAGGUAGCAUUCCCCAGCCCUGCCGAGCUCCCGGACCAGAAGCAGCUGCGCUACACGGAGGAACUCAACAGAGGAUUGAGCAUCA
# B3: chr11:95167508:95167609:-|3pUTR|ENSG00000149212|unk|total|mutant (ssRNA)
# RNA: GGGAGUUCUACAGUCCGACGAUCAAUAAUGGAGACUGAAUGAGGCGGUUUGUAUUAAAUUAUAUGCCAUGAAGUGUUCAUUUCCGCUUUAACCUAAUUAUGACUGUACCACCAUGAAGUACAGAAUGAAAAAUUAUAUAUAUGCAACAGAGGAUUGAGCAUCA
# B4: chr16:88813726:88813828:-|3pUTR|ENSG00000141012|unk|FALSE|unique (ssRNA)
# RNA: GGGAGUUCUACAGUCCGACGAUCUCCCUGGACGCUAAUUAUGAGGGAGGCGUGUAGCUUCUUAUCAUUGUAACUAUGUUAUUUAGAAAUAAAACGGGAGGCAGGUUUGCCUAAUUCCCAGCUUGAUUUUUCUCUUGGCUGAGUCAACAGAGGAUUGAGCAUCA
# B5: chr5:122065063:122065164:-|3pUTR|ENSG00000113083|msi1|FALSE|unique (ssRNA)
# RNA: GGGAGUUCUACAGUCCGACGAUCUCAACUGGCGGAUAUAGCGGUACAUAUGAUCCUUAGCCACCAGGGCACAAGCUUACCAGUAGACAAUACAGACAGAGCUUUUGUUGAGCUGUAACUGAGCUAUGGAAUAGCUUCUUUGAUCAACAGAGGAUUGAGCAUCA
# B6: chr6:21593967:21594078:+|5pUTR|ENSG00000124766|unk|FALSE|bound_elsewhere (ssRNA)
# RNA: GGGAGUUCUACAGUCCGACGAUCUUAGUGCCGAUUCCGCCCACAGAGAGUCCUGGAGCCACAGUCUUUUUUGCUUUGCAUUGUAGGAGAGGGACUAAGUGCUAGAGACUAUGUCGCUUUCCUGAGCUACCGAGAGCGCUCGUGCAACAGAGGAUUGAGCAUCA
# B7: chr10:16593140:16593241:-|3pUTR|ENSG00000148484|unk|total|mutant (ssRNA)
# RNA: GGGAGUUCUACAGUCCGACGAUCUUAUUUUUCUUUUCACUCUCUUUCUAAUGCUUCCCACCUUACCUUUCCGAUUCUUUUGCCCGGUGGGAGAUUGUUAUAAGGUCUUUAAACCAUUUCCAUUUGUUUCUUUAACAUUACCAACAACAGAGGAUUGAGCAUCA
# B8: chr4:175634378:175634624:-|3pUTR|ENSG00000150625|msi1|total|mutant (ssRNA)
# RNA: GGGAGUUCUACAGUCCGACGAUCUUUCUUAUGUUUUGAAAAGAAAACCGCUUUUUAUACUUUUCCGUUUUGAUUUCGGUAACCCGUUUAACUACAGGUAACCUUCAAAGGGACCAUUGUACAUUAUGAACAACCGACCGAGAUCAACAGAGGAUUGAGCAUCA
# B9: chr2:85327303:85327429:-|CDS|ENSG00000152291|msi1|FALSE|bound_elsewhere (ssRNA)
# RNA: GGGAGUUCUACAGUCCGACGAUCACCCAAAAAGGCAGCACUAGCAAGUCGGGUUCGGAGGCGCAGACCACAAAAGACAGCACUAGUAAGUCGCAUCCGGAGCUGCAGACUCCAAAAGACAGCACUGGCAAAUCGGGUGCGGAGCAACAGAGGAUUGAGCAUCA
# B10: chr10:30313878:30313980:-|CDS|ENSG00000107951|unk|FALSE|unique (ssRNA)
# RNA: GGGAGUUCUACAGUCCGACGAUCUGUUUUUAUAUUUAAGCCCUUCAUGUACUUACUCAUUUUUUCUUCUGUGUAAUAAUCUAUAGGGAAGGGAGCAAAACAAACCUGAUUCUUCUCCUCUGUACAUUCAGAAUCCAUUUGAAACAACAGAGGAUUGAGCAUCA
# B11: chr1:77949188:77949289:-|CDS|ENSG00000162613|unk|total|mutant (ssRNA)
# RNA: GGGAGUUCUACAGUCCGACGAUCUUCAAAGGUCAGGCAGUUCCUGCUCCGACUGGGGCUCCUCCAGGUGGUCAGCCAGAUUACCGUGCAGCCUGGGCUGAGUAUUACCGACAACAAGCAGCCUAUUAUGCCCAGACAAGUCCCCAACAGAGGAUUGAGCAUCA
# B12: chr8:23572142:23572248:+|3pUTR|ENSG00000147454|unk|total|mutant (ssRNA)
# RNA: GGGAGUUCUACAGUCCGACGAUCCCUCCCUGGGCAGAAUGCCGCUUUUCUGCUUCACUGUGGCAGCCUCCUCCCUGGAUCCUCCGAUCCCAGAGGAGGGAAGAAAAUUUGCAGUGACUGAAAACAGUAAAAAAAAAAAAAAAACAACAGAGGAUUGAGCAUCA
# B13: chr10:113876644:113876745:+|CDS|ENSG00000196865|msi1|FALSE|bound_elsewhere (ssRNA)
# RNA: GGGAGUUCUACAGUCCGACGAUCGGUUAAUGAUGCAGAUGCCAGCCUUUGGCAAGAACUAGAAGUUUCCUGCUGGCCAACUCUAGUCAUACUUGGACCUCGUGGAAACAUGUUGUUUUCUUUGAUUGGAGAGGGACACAAAGACAACAGAGGAUUGAGCAUCA
# B14: chr12:39370042:39370220:-|CDS|ENSG00000139116|unk|FALSE|unique (ssRNA)
# RNA: GGGAGUUCUACAGUCCGACGAUCUACUUUUGACUAUGUAUUUGACAUUGACUCCCAGCAAGAGCAGAUCUACAUUCAAUGUAUAGAAAAACUAAUUGAAGGUUGCUUUGAAGGAUACAAUGCUACAGUUUUUGCUUAUGGACACAACAGAGGAUUGAGCAUCA
# B15: ENSG00000099904:stop:overlap|stop_codon|ENSG00000099904|stop_codon|NA|stop_codon (ssRNA)
# RNA: GGGAGUUCUACAGUCCGACGAUCGGGCCAUGUGCCGCCUGCACUUGGCUGCCUCCAGUCUUUUCCCCAGCCUCUCGGGGCCCUAGCAGGAUGACAAGUAGGCGGCUCUGGGGCCCAGGACAGCCCAGCUGGGGACCCAGGAGGCAACAGAGGAUUGAGCAUCA
# B16: chr2:159967538:159967678:-|CDS|ENSG00000153246|control|control|control (ssRNA)
# RNA: GGGAGUUCUACAGUCCGACGAUCUAGUGAAGAGUGUUCAGUUUCUAUGCCUAGUAUCUGUAAGCGAAAAAAGGUUUGGCUCAUAGAGAAAAAGAAAGAUACACCAAAACAACAUGGAACGUGUCCCAAAGGAUGGCUAUAUUUCAACAGAGGAUUGAGCAUCA
# B17: chr19:19111484:19111585:+|3pUTR|ENSG00000181035|msi1|FALSE|unique (ssRNA)
# RNA: GGGAGUUCUACAGUCCGACGAUCAGCCUCAUGUCUAUCCUAGACCCUGCAAGCAGCUGGGUCCCCAAGAGUGCAUCUCCCCCUAGAGUUGCCUGCCCAUGCCCACCUGCUUUGUAACCUUCCCAGGAGAUUCAUGCUUGCUCUCAACAGAGGAUUGAGCAUCA
# B18: chr1:203709306:203709407:+|CDS|ENSG00000058668|msi1|total|mutant (ssRNA)
# RNA: GGGAGUUCUACAGUCCGACGAUCUCCAGAGAAGGAGGGAGGCCUGCCUCGGCAGGUGGGCAACAAGACCGAGUGUGCUCUGCCCGGCUUUGUCACAGAUCUGAAGCAGGAUUAUCAGGCUGUGCGUAAUGAAGUGCCCGAGGACAACAGAGGAUUGAGCAUCA
# B19: chr6:149379354:149379455:+|CDS|ENSG00000055208|msi1|total|mutant (ssRNA)
# RNA: GGGAGUUCUACAGUCCGACGAUCAGGGGUGGUGUCCCCUACCUUUGAACUUACAAAUCUUCUUAAUCAUCCUGAUCAUUAUGCCGAAACCGAGAAUAUUCAGCACCUCACGGACCCUACAUCCGCACAUGUGGACCGAAUAAGCAACAGAGGAUUGAGCAUCA
# B20: chr13:66631209:66631411:-|CDS|ENSG00000184226|control|control|control (ssRNA)
# RNA: GGGAGUUCUACAGUCCGACGAUCCCUGAUGGCUCCCAGGAAAGCUGCAGUGACAGUGGUCUAGGAGACCAUGAGCCGGUGGGUAGUGGAACCCUGAUCUCACACCCUCUUCCUCUGGUUCAGCCACAGGACGAAUUCUAUGACCAACAGAGGAUUGAGCAUCA
# B21: chr12:3284911:3285012:+|3pUTR|ENSG00000011105|msi1|FALSE|unique (ssRNA)
# RNA: GGGAGUUCUACAGUCCGACGAUCGGAGGACAGAACCGUUGGCAUUAUCAGGAUUCGUGUUUUGUGGGGGUGGGAGUGGAGAGUAGGGUGGUCUUGUGAGUUGUGCAGGGUGAAGACCGCUUCCCUGAGACAGGGGCAGUGGUGCAACAGAGGAUUGAGCAUCA
# B22: ENSG00000148248:stop:overlap|stop_codon|ENSG00000148248|stop_codon|NA|stop_codon (ssRNA)
# RNA: GGGAGUUCUACAGUCCGACGAUCUGAUGUUCAUGACCCUCCUUCACUUUGACGCCAGCUUCUUUUCUCAGCCGUCUCAGCAGUAGCUACAUCAGCCUGAUGGAUAGAGACUUCAUGACGUGCAGCAGCUGGAACUUUUGUUUACAACAGAGGAUUGAGCAUCA
# Biological target: MSI1 full-length (mouse, UniProt Q61474 1-362)
# Chain of UniProt Q61474 (Q61474 whole entry): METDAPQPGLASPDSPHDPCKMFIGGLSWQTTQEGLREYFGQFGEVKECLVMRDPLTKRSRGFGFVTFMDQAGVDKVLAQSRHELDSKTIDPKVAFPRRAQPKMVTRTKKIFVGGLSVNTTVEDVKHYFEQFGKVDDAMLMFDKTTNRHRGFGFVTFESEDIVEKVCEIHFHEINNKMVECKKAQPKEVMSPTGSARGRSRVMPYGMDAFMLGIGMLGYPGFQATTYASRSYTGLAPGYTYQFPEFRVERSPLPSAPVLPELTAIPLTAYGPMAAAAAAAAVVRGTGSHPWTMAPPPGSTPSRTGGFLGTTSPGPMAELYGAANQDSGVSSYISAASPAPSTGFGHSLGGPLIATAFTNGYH
# Assay: nsRBNS (natural sequence RNA bind-n-seq); RBNS binding buffer (assumed for nsRBNS): 25 mM Tris pH 7.5, 150 mM KCl, 3 mM MgCl2, 0.01% Triton X-100, 500 ug/ml BSA, 20 U/ml SUPERase-In, 4 C; UNK is unkempt and MSI1 is Musashi-1; names of the RNAs are library labels; protein concentration not given here; high values mean tight binding
row,Binder,binding signal
1,B1,0.259 enrichment R
2,B2,0.649 enrichment R
3,B3,0.609 enrichment R
4,B4,1.75 enrichment R
5,B5,0.688 enrichment R
6,B6,0.616 enrichment R
7,B7,1.23 enrichment R
8,B8,0.178 enrichment R
9,B9,0.748 enrichment R
10,B10,1.04 enrichment R
11,B11,0.427 enrichment R
12,B12,0.358 enrichment R
13,B13,0.522 enrichment R
14,B14,1.19 enrichment R
15,B15,1.02 enrichment R
16,B16,0.633 enrichment R
17,B17,0.61 enrichment R
18,B18,0.402 enrichment R
19,B19,0.36 enrichment R
20,B20,0.365 enrichment R
21,B21,0.736 enrichment R
22,B22,0.533 enrichment R
